Test results as given in paper PMC4336329 (PLoS ONE, 2015).
The campaign covered roughly 310,000 compounds. About 2,200 (0.71%) showed an effect of 50% or more. Effects have a minus sign here. Some of the results follow. Where a SMILES comes first, the peptide text is derived from it. The star is where a group is joined. Cbz = O=C(OCc1ccccc1)*

Target: human ether-à-go-go-related gene (hERG) potassium channel (human, UniProt Q12809)
Test: primary screen, population patch clamp on CHO cells stably expressing hERG

Chain of human ether-à-go-go-related gene (hERG) potassium channel (Q12809 whole entry, looked up): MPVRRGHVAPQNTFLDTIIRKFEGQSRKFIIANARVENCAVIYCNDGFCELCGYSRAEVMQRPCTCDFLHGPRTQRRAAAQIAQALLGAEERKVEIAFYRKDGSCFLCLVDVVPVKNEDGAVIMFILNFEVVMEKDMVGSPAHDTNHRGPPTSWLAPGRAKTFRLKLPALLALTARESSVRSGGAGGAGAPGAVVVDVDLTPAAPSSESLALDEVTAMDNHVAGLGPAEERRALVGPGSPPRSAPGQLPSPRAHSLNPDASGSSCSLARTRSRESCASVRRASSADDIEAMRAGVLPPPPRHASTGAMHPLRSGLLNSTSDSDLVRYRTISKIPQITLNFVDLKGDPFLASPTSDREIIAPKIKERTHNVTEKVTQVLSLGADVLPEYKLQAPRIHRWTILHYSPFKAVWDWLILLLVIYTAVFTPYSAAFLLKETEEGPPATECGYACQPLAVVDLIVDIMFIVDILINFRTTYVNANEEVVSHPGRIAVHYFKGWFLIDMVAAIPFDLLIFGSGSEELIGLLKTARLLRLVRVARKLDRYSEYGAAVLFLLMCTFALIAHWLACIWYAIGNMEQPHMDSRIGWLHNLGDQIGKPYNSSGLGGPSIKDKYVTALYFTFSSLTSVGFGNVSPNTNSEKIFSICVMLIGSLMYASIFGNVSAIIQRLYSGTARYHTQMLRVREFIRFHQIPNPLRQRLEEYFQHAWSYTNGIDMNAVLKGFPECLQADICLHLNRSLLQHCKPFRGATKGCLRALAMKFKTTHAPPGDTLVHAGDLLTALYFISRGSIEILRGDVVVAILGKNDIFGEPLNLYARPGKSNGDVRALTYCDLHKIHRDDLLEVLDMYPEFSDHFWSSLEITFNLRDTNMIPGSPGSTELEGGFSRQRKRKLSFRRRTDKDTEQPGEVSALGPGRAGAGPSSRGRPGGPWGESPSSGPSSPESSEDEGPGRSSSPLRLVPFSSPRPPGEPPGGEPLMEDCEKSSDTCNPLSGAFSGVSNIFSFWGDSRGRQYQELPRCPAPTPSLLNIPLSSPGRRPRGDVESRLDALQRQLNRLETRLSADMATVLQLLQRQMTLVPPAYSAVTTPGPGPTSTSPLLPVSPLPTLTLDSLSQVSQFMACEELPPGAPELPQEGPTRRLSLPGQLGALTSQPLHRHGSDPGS

| SMILES | hERG current change (%, negative = inhibition) at 1uM [%] |
| --- | --- |
| CC(NC(=O)c1ccco1)C(=O)NC(C)c1cc(F)c(Cl)cc1Cl (centres unmarked) | 19.1 |
| O=C(Cc1ncc(C(F)(F)F)cc1Cl)NC1CC1 | 6.45 |
| Cn1c(-c2csc(-c3ccccc3)n2)n[nH]c1=S | 8.8 |
| CCC(=O)Nc1nnc(SCc2ccccc2F)s1 | 10.2 |
| COC(=O)C1CCN(C(=O)/C(C)=C\c2ccccc2)CC1 | 9.9 |
| O=C(NCCc1c[nH]c2ccccc12)c1ccc(-n2cnnn2)cc1 | -2.19 |
| Cc1ccc(CN(C(=O)COc2ccc([N+](=O)[O-])cc2)C2CCS(=O)(=O)C2)o1 (centres unmarked) | -3.95 |
| O=C(C1CCCCC1)N1CCc2ccccc21 | 16.2 |
| CCOC(=O)c1cn(-c2c(Cl)cccc2Cl)c2cc(Cl)c([N+](=O)[O-])cc2c1=O | 8.33 |
| COc1cc(C2/C(=C(\O)c3ccc4c(c3)CC(C)O4)C(=O)C(=O)N2c2nnc(C)s2)cc(OC)c1OC (centres unmarked) | 12.5 |
| CCOC(=O)N1CCN(C(=O)CCCn2nnnc2CN2CCC(C)CC2)CC1 | 10.4 |
| O=C(Nc1nnc(C2CC2)s1)c1cc(-c2ccccc2)nn1-c1ccccc1 | 8 |
| CCc1c(C)sc(NC(=O)c2cc(CC(C)C)on2)c1C#N | 6.85 |
| COC(=O)C1CCN(C(=O)COC(=O)CC(NC(C)=O)c2ccccc2)CC1 (centres unmarked) | 7.51 |
| COc1ccc(NC(=S)N2CCCN(Cc3cccc(Cl)c3)C2)cc1 | 1.26 |
| CN(CC(=O)Nc1nc2ccc(F)cc2s1)S(=O)(=O)c1ccc(Cl)cc1 | 17.5 |
| COc1cc(C(=S)N2CCOCC2)ccc1OS(=O)(=O)c1ccccc1[N+](=O)[O-] | 7.6 |
| CCSc1ncc(Cl)c(C(=O)Nc2cc(C)ccc2C)n1 | 13.2 |
| O=C(NCCCN1CCOCC1)C(=O)N/N=C/c1cccc2ccccc12 | 1.17 |
| C=C1CCC(OC(C)=O)C2(C)CCC3C(C)C(=O)OC3C12O (centres unmarked) | 14.4 |
| Cc1n[nH]c(C)c1S(=O)(=O)N1CCCCCC1 | -7.64 |
| Cc1nn(C)cc1S(=O)(=O)N1CCN(Cc2ccc(F)cc2Cl)CC1 | 2.49 |

| SMILES | hERG current change (%, negative = inhibition) at 1uM [%] |
| --- | --- |
| COc1ccc(Cc2nc(-c3ccccn3)no2)cc1 | -0.526 |
| Cc1ccc(S(=O)(=O)N2[C@@H](c3ccc(F)cc3)C(C(=O)O)=CC[C@H]2c2cccs2)cc1 | 12 |
| Cc1ccc(S(=O)(=O)NC(=O)Nc2c(C)n(C)n(-c3ccccc3)c2=O)cc1 | 8.42 |
| COc1ccccc1C(=O)COC(=O)CSC(C)C(=O)Nc1cc(C)on1 (centres unmarked) | 4.85 |
| O=c1cc(O)c(-c2ccccc2Cl)c(Cl)[nH]1 | 7.7 |
| O=c1oc2ccccc2n1Cn1c(=O)oc2ccccc21 | 16.2 |
| O=C(Nc1nnc(Cc2ccccc2F)s1)Nc1ccccc1F | 15.2 |
| Cc1cccc(NS(=O)(=O)c2ccc(C(=O)NCC(C)(C)N3CCOCC3)cc2)c1C | -6.55 |
| CN(C)S(=O)(=O)c1ccc(N2CCCC2)c(C(=O)NC(c2ccccc2)c2ccccc2)c1 | 5.57 |
| O=C(Nc1ncccn1)C12CC3CC(CC(C3)C1)C2 | 5.79 |
| COCCNc1nc(-c2cc(C)c(C)cc2C)cs1.Cl | 7.44 |
| O=C(CN1C(=O)C2CCCCC2C1=O)Nc1ccc(OC(F)F)c(Cl)c1 (centres unmarked) | 7.77 |
| Cc1ccccc1N1C(=O)c2sc3nc4c(c(=O)n3c2C1=O)CCC4 | 11.4 |
| CCCOc1ccc(/C=C2\SC(=S)N(CC3CCCO3)C2=O)cc1 (centres unmarked) | 10.5 |
| COC(=O)[C@@]12CCCCN1[C@H](c1ccc(-c3cccc(Cl)c3)c(OC)c1)[C@@H]1C(=O)N(C)C(=O)[C@@H]12.O=C(O)C(F)(F)F | 16.5 |
| COc1ccc(CC(=O)Nc2ccccc2C(=O)N2CCOCC2)cc1 | 12.5 |
| CCc1ccc(C2CC(=O)N(c3ccc(F)cc3)C3=C2C(=O)OC3)cc1 (centres unmarked) | 4.29 |
| Cc1ccc(C)c(-c2cc(C(=O)NC3CC3)c3ccccc3n2)c1 | -32.5 |
| CCCOC(=O)CSc1nc(N2CCOCC2)c2c(c1C#N)CC(C)(C)OC2 | 1.98 |
| CC(C)N1C(=S)SC(C)(C)C1n1oc(=O)n(-c2ccc(Cl)c(Cl)c2)c1=O (centres unmarked) | 5.15 |
| COC(=O)C1=C(c2ccccc2)C[C@@H]2CC[C@H]1N2C(=O)NCC1CC1 | 7.61 |
| COc1ccc(C2=NN(C(=O)CCC(=O)O)C(c3ccccc3OC)C2)cc1 (centres unmarked) | 14.3 |

| SMILES | hERG current change (%, negative = inhibition) at 1uM [%] |
| --- | --- |
| OC(COC(c1ccccc1)c1ccccc1)CN1CCN(c2ccccn2)CC1 (centres unmarked) | -73.5 |
| S=C(NCc1ccccc1)NCc1cccc(CNC(=S)NCc2ccccc2)c1 | 16.2 |
| COc1ccc(C(=O)CCC(=O)Nc2ccc(N3CCCCC3)cc2)cc1OC | 12 |
| CCC(O)C1CCN(C(=O)c2cc(COc3ccc(F)cc3F)on2)CC1 (centres unmarked) | 9.85 |
| OCC[C@@H]1C[C@H](O)[C@@H](O)[C@]2(CCc3ccccc3O2)O1 | 17.8 |
| CC(Sc1nnc(C(F)(F)F)n1C)C(=O)NC(N)=O (centres unmarked) | 4.18 |
| CNC(=O)/C(C#N)=C/c1c(N(Cc2ccccc2)Cc2ccccc2)nc2c(C)cccn2c1=O | 7.78 |
| O=C(N/N=C/c1ccc[nH]1)c1cccc(Br)c1 | 7.7 |
| Cc1ccc(COc2ccc(S(=O)(=O)N3CCCC3)cc2C(N)=O)cc1 | 17.1 |
| Cc1ccccc1S(=O)(=O)Cc1ccc(C(=O)N2CCN(c3cccc(C)c3C)CC2)o1 | 4.95 |
| Cn1c(=O)c2ncn(CC(=O)Nc3nc(-c4ccc(Cl)cc4)cs3)c2n(C)c1=O | 1.76 |
| Cn1cccc1C(=O)NC(=O)COC(=O)c1ccccc1O | 12.4 |
| CC(C)C(NC(=O)OCc1ccccc1)C(=O)NC(Cc1ccc(O)cc1)C(=O)O (stereo not drawn) (Cbz-Val-Tyr-OH; configuration not given here) | 5.45 |
| Cc1ccc(-n2c(C)cc(C(=O)OCC(=O)N(CC(C)C)C3CCS(=O)(=O)C3)c2C)cc1 (centres unmarked) | 11.8 |
| CCN(c1ccccc1)S(=O)(=O)c1ccc(OC)c(NC(=O)CCc2nc3ccccc3c(=O)[nH]2)c1 | -10.4 |
| CCN(CC)C(=O)CN(Cc1ccccc1)S(=O)(=O)c1ccc(F)cc1 | 10.1 |
| O=C(OCC(=O)c1ccc[nH]1)c1ccc(Cl)nc1 | 11.8 |
| C=CCn1c(COc2cccc(C)c2)nnc1SCC(=O)c1c[nH]c2c(CC)cccc12 | 17.4 |
| CC(C)C(=O)NC(=S)Nc1sc2c(c1C(N)=O)CCCC2 | 13.9 |
| COC(=O)C1=C(C)N(Cc2ccccc2)C(=NCc2cc(OC)c(OC)c(OC)c2)N[C@H]1c1cccc(F)c1 | 6.19 |
| CCCCOc1ccc(C(=O)NCC2(c3ccc(OC)cc3)CCOCC2)cc1 | -3.75 |
| C/C(CC(=O)Nc1c(C)cc(C)cc1C)=N\NC(=O)Cc1ccccc1 | 9.93 |

| SMILES | hERG current change (%, negative = inhibition) at 1uM [%] |
| --- | --- |
| Clc1ccc(-c2csc3ncnc(N4CCc5ccccc5C4)c23)cc1 | 3.11 |
| CC1(C)CN=C(Nc2ccc(F)c(F)c2)S1 | 12.1 |
| N=Cc1c(O)n(-c2ccc(C34CC5CC(CC(C5)C3)C4)cc2)c(=O)[nH]c1=O | 3.34 |
| CS(=O)(=O)N(CC(=O)NC1CC2CCC1C2)c1cccc(C(F)(F)F)c1 (centres unmarked) | 6.4 |
| CS(=O)(=O)Nc1cccc(-c2cn3c(n2)SCC3)c1 | 24.6 |
| Cc1cccc(N2CCN(C(=O)Cn3ccc4ccccc4c3=O)CC2)c1C | 6.87 |
| CCOc1ccc(OCC)c(NC(=O)CSc2nc3cccnc3n2C)c1 | -1.35 |
| O=C(O)C(Cc1ccccc1)N1C(=O)/C(=C/c2cccnc2)SC1=S (centres unmarked) | 10.6 |
| COc1ccc(NC(=O)c2cc3c(s2)CCC(C)C3)cc1S(=O)(=O)N1CCOCC1 (centres unmarked) | 11.7 |
| Cc1cc(N(C)C)c(C#N)c(=O)[nH]1 | 12.4 |
| CC(=O)NNC(=S)NC(=O)c1cccc([N+](=O)[O-])c1 | 9.98 |
| O=S(=O)(c1ccccc1)N1CCN(S(=O)(=O)c2ccccc2)C1 | 9.03 |
| Cn1nc(C(=O)NC2=NCCS2)ccc1=O | 2.04 |
| CCn1c(=O)cc(SCC(=O)Nc2ccc(C)cn2)c2ccccc21 | 9.41 |
| CC(=O)c1ccc(NC(=O)CSc2nnc(Cc3cccn3C)n2-c2ccc(F)cc2)cc1 | 7.78 |
| CCOC(=O)CNC(=O)C1CCN(S(=O)(=O)c2ccc(-c3nn[nH]n3)cc2)CC1 | 10.7 |
| O=C(CCN1CCN(S(=O)(=O)c2ccc(Br)cc2)CC1)Nc1ccccc1F | -5.02 |
| Cc1ccc2c(c1)OC(c1ccc3c(c1)OCCO3)CC2=O (centres unmarked) | 16.7 |
| Cc1[nH]nc(SCC(=O)NCc2ccc(F)cc2)c1[N+](=O)[O-] | 13.6 |
| CCn1cc(C(=O)NCCCN2CCCC(C)C2)c(=O)c2cc(S(=O)(=O)N(C)C3CCCCC3)ccc21 (centres unmarked) | -82 |
